Literature values as cited in patent publication US7439350B2, “Nucleotide analogs” (Gilead Sciences, Inc., priority 1993, dated 2008).

Conditions: Balzarini et al, Animal Models in AIDS (1990); cited from earlier work

Nc1ncnc2c1ncn2CCOCP(=O)(O)O [PMEA, 9-(2-phosphonylmethoxyethyl)adenine]
oral bioavailability: 2-4%
